# About 220 (0.56%) of roughly 39,000 compounds showed activity. Some of the results follow.
# Tested on: Escherichia coli K-12 BW25113
# Experiment: relative growth (OD600 normalised to plate interquartile mean) (fraction); higher = less growth inhibition, active = 0.2 or less
# Conditions: 50 µM; LB; incubation time: overnight (16-24 h)
# 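Further: static incubation at 37 °C against the wild-type strain, values averaged over two biological replicates.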
row,SMILES,relative growth
1,CC(C)(O)c1cn(-c2nonc2N)nn1,inactive: 0.975
2,C[C@H](CO)N1C[C@H](C)[C@@H](CN(C)C(=O)Nc2ccc(F)cc2)OCCCC[C@H](C)Oc2ccc(NC(=O)NC3CCCCC3)cc2C1=O,inactive: 0.992
3,CCCN1C[C@H](C)[C@@H](OC)CN(C)C(=O)c2ccc(NS(=O)(=O)c3cn(C)cn3)cc2OC[C@H]1C,inactive: 0.982
4,O=C(C[C@@H]1CC[C@H]2[C@@H](COC[C@@H](O)CN2Cc2cccc(C(F)(F)F)c2)O1)NCCc1ccncc1,inactive: 0.997
5,C[C@@H]1CCCCO[C@H](CN(C)Cc2ccc(Cl)c(Cl)c2)[C@@H](C)CN([C@@H](C)CO)C(=O)c2cc(NC(=O)Nc3ccc(F)cc3)ccc2O1,inactive: 1.02
6,C[C@H](CO)N1C[C@H](C)[C@H](CN(C)Cc2ccc(Oc3ccccc3)cc2)Oc2ccc(NS(=O)(=O)c3cccs3)cc2CC1=O,inactive: 0.865
7,C[C@H](CO)N1C[C@H](C)[C@@H](CN(C)C(=O)Nc2ccc(C(F)(F)F)cc2)Oc2c(NS(=O)(=O)c3ccc(Cl)cc3)cccc2C1=O,inactive: 0.991
8,C[C@H](CO)N1C[C@H](C)[C@H](CN(C)S(=O)(=O)c2ccc(Cl)cc2)Oc2ccc(NC(=O)CCCN(C)C)cc2C1=O,inactive: 0.989
9,COc1ccc(NC(=O)N(C)C[C@H]2OCCCC[C@H](C)Oc3ccc(NC(=O)Cc4ccccc4)cc3C(=O)N([C@@H](C)CO)C[C@@H]2C)cc1,inactive: 0.993
10,CC(C)NC(=O)N(C)C[C@H]1Oc2c(NS(=O)(=O)c3ccc(F)cc3)cccc2C(=O)N([C@H](C)CO)C[C@@H]1C,inactive: 0.876
11,O=C(Nc1ccccc1)Nc1ccccc1,inactive: 0.904
12,C[C@H](CO)N1C[C@H](C)[C@H](CN(C)S(C)(=O)=O)Oc2c(NC(=O)NC3CCCCC3)cccc2C1=O,inactive: 0.97
13,C[C@H]1CN([C@@H](C)CO)C(=O)c2cccc(NC(=O)c3ccncc3)c2O[C@@H]1CN(C)C(=O)Nc1ccc2c(c1)OCO2,inactive: 0.997
14,COc1cccc(CN(C)C[C@@H]2OCc3ccccc3-c3c(n(C)c4ccccc34)C(=O)N([C@@H](C)CO)C[C@@H]2C)c1,inactive: 0.975
15,CCCC#Cc1cnc2c(c1)C(=O)N([C@H](C)CO)C[C@H](C)[C@H](CN(C)C(=O)c1ccc3c(c1)OCO3)O2,inactive: 0.989
16,C[C@H]1CCCCO[C@H](CN(C)Cc2ccc(C(F)(F)F)cc2)[C@@H](C)CN([C@@H](C)CO)C(=O)c2cc(NC(=O)c3ccccc3)ccc2O1,inactive: 1.01
